Laboratory results reported in PMC4468608, “A distinct p53 target gene set predicts for response to the selective p53–HDM2 inhibitor NVP-CGM097” (eLife, 2015).
The source gives many values for each of these; only a part stands here.

System: cell lines from the Cancer Cell Line Encyclopedia (CCLE)
Assay: High-throughput cell viability assay, CCLE cell line panel (n = 356)
Assay type: cell-based, human
Experimental: Cell lines were partitioned into sensitive and insensitive groups based on compound potency (IC50). […] All other cell lines were obtained from ATCC (American Type Culture Collection), DSMZ (Deutsche Sammlung von Mikroorganismen und Zellkulturen), and HSRRB (Health Science Research Resources Bank) and cultured in RPMI or Dulbecco's modified Eagle's medium plus 10% FBS (Invitrogen, Carlsbad, CA) at 37°C, 5% CO2.

## COc1cc2c(cc1OC(C)C)[C@H](c1ccc(Cl)cc1)N(c1ccc(N(C)C[C@H]3CC[C@H](N4CCNC(=O)C4)CC3)cc1)C(=O)C2 [NVP-CFC218]
L3.3, TP53 WT
  Amax: -23.35%
  sensitivity call: insensitive (Sensitivity call for each compound was applied according to a cut-off of 4 µM for IC50 and -50% for Amax)
L-363, TP53 MUT
  Amax: 1.09%
  sensitivity call: insensitive (Sensitivity call for each compound was applied according to a cut-off of 4 µM for IC50 and -50% for Amax)
LC-1/sq-SF, TP53 MUT
  Amax: 12.18%
  sensitivity call: insensitive (Sensitivity call for each compound was applied according to a cut-off of 4 µM for IC50 and -50% for Amax)
LP-1, TP53 MUT
  Amax: -61.82%
  sensitivity call: insensitive (Sensitivity call for each compound was applied according to a cut-off of 4 µM for IC50 and -50% for Amax)
LS1034, TP53 MUT
  Amax: -11.78%
  sensitivity call: insensitive (Sensitivity call for each compound was applied according to a cut-off of 4 µM for IC50 and -50% for Amax)
LU99, TP53 WT
  Amax: -74.84%
  sensitivity call: sensitive (Sensitivity call for each compound was applied according to a cut-off of 4 µM for IC50 and -50% for Amax)
LUDLU-1, TP53 MUT
  Amax: -45.77%
  sensitivity call: insensitive (Sensitivity call for each compound was applied according to a cut-off of 4 µM for IC50 and -50% for Amax)
Loucy, TP53 MUT
  Amax: -53.62%
  sensitivity call: insensitive (Sensitivity call for each compound was applied according to a cut-off of 4 µM for IC50 and -50% for Amax)
MC116, TP53 MUT
  Amax: -73.96%
  sensitivity call: insensitive (Sensitivity call for each compound was applied according to a cut-off of 4 µM for IC50 and -50% for Amax)
MDA-MB-415, TP53 MUT
  Amax: -55.83%
  sensitivity call: insensitive (Sensitivity call for each compound was applied according to a cut-off of 4 µM for IC50 and -50% for Amax)
MDA-MB-453, TP53 WT
  Amax: -3.32%
  sensitivity call: insensitive (Sensitivity call for each compound was applied according to a cut-off of 4 µM for IC50 and -50% for Amax)
MDA-MB-468, TP53 MUT
  Amax: -0.27%
  sensitivity call: insensitive (Sensitivity call for each compound was applied according to a cut-off of 4 µM for IC50 and -50% for Amax)
MFE-280, TP53 MUT
  Amax: -60.45%
  sensitivity call: insensitive (Sensitivity call for each compound was applied according to a cut-off of 4 µM for IC50 and -50% for Amax)
MFE-296, TP53 MUT
  Amax: -4.03%
  sensitivity call: insensitive (Sensitivity call for each compound was applied according to a cut-off of 4 µM for IC50 and -50% for Amax)
MFE-319, TP53 MUT
  Amax: 1.74%
  sensitivity call: insensitive (Sensitivity call for each compound was applied according to a cut-off of 4 µM for IC50 and -50% for Amax)
MG-63, TP53 WT
  Amax: -26.13%
  sensitivity call: insensitive (Sensitivity call for each compound was applied according to a cut-off of 4 µM for IC50 and -50% for Amax)
MIA PaCa-2, TP53 MUT
  Amax: 1.28%
  sensitivity call: insensitive (Sensitivity call for each compound was applied according to a cut-off of 4 µM for IC50 and -50% for Amax)
MOG-G-CCM, TP53 MUT
  Amax: -5.90%
  sensitivity call: insensitive (Sensitivity call for each compound was applied according to a cut-off of 4 µM for IC50 and -50% for Amax)
MOLM-13, TP53 WT
  Amax: -94.52%
  sensitivity call: sensitive (Sensitivity call for each compound was applied according to a cut-off of 4 µM for IC50 and -50% for Amax)
MONO-MAC-1, TP53 MUT
  Amax: -2.52%
  sensitivity call: insensitive (Sensitivity call for each compound was applied according to a cut-off of 4 µM for IC50 and -50% for Amax)
MOR/CPR, TP53 MUT
  Amax: -1.44%
  sensitivity call: insensitive (Sensitivity call for each compound was applied according to a cut-off of 4 µM for IC50 and -50% for Amax)
MPP 89, TP53 WT
  Amax: 3.91%
  sensitivity call: insensitive (Sensitivity call for each compound was applied according to a cut-off of 4 µM for IC50 and -50% for Amax)
NALM-6, TP53 WT
  Amax: -96.38%
  sensitivity call: sensitive (Sensitivity call for each compound was applied according to a cut-off of 4 µM for IC50 and -50% for Amax)
NB-4, TP53 MUT
  Amax: -20.20%
  sensitivity call: insensitive (Sensitivity call for each compound was applied according to a cut-off of 4 µM for IC50 and -50% for Amax)
NCI-H211, TP53 MUT
  Amax: -5.53%
  sensitivity call: insensitive (Sensitivity call for each compound was applied according to a cut-off of 4 µM for IC50 and -50% for Amax)
NCI-H358, TP53 WT
  Amax: -34.66%
  sensitivity call: insensitive (Sensitivity call for each compound was applied according to a cut-off of 4 µM for IC50 and -50% for Amax)
NCI-H441, TP53 MUT
  Amax: -21.27%
  sensitivity call: insensitive (Sensitivity call for each compound was applied according to a cut-off of 4 µM for IC50 and -50% for Amax)
NCI-H520, TP53 MUT
  Amax: -1.85%
  sensitivity call: insensitive (Sensitivity call for each compound was applied according to a cut-off of 4 µM for IC50 and -50% for Amax)
NCI-H650, TP53 MUT
  Amax: -38.20%
  sensitivity call: insensitive (Sensitivity call for each compound was applied according to a cut-off of 4 µM for IC50 and -50% for Amax)
NCI-H747, TP53 MUT
  Amax: -4.17%
  sensitivity call: insensitive (Sensitivity call for each compound was applied according to a cut-off of 4 µM for IC50 and -50% for Amax)
NCI-H810, TP53 MUT
  Amax: -5.81%
  sensitivity call: insensitive (Sensitivity call for each compound was applied according to a cut-off of 4 µM for IC50 and -50% for Amax)
NCI-H889, TP53 MUT
  Amax: 3.61%
  sensitivity call: insensitive (Sensitivity call for each compound was applied according to a cut-off of 4 µM for IC50 and -50% for Amax)
NCI-H1373, TP53 MUT
  Amax: -0.95%
  sensitivity call: insensitive (Sensitivity call for each compound was applied according to a cut-off of 4 µM for IC50 and -50% for Amax)
NCI-H1435, TP53 MUT
  Amax: 1.81%
  sensitivity call: insensitive (Sensitivity call for each compound was applied according to a cut-off of 4 µM for IC50 and -50% for Amax)
NCI-H1573, TP53 MUT
  Amax: 7.38%
  sensitivity call: insensitive (Sensitivity call for each compound was applied according to a cut-off of 4 µM for IC50 and -50% for Amax)
NCI-H1581, TP53 MUT
  Amax: 1.44%
  sensitivity call: insensitive (Sensitivity call for each compound was applied according to a cut-off of 4 µM for IC50 and -50% for Amax)
NCI-H1666, TP53 WT
  Amax: -58.51%
  sensitivity call: sensitive (Sensitivity call for each compound was applied according to a cut-off of 4 µM for IC50 and -50% for Amax)
NCI-H1734, TP53 MUT
  Amax: 23.48%
  sensitivity call: insensitive (Sensitivity call for each compound was applied according to a cut-off of 4 µM for IC50 and -50% for Amax)
NCI-H1792, TP53 MUT
  Amax: -2.85%
  sensitivity call: insensitive (Sensitivity call for each compound was applied according to a cut-off of 4 µM for IC50 and -50% for Amax)
NCI-H1915, TP53 MUT
  Amax: 3.71%
  sensitivity call: insensitive (Sensitivity call for each compound was applied according to a cut-off of 4 µM for IC50 and -50% for Amax)
NCI-H1944, TP53 WT
  Amax: -55.40%
  sensitivity call: insensitive (Sensitivity call for each compound was applied according to a cut-off of 4 µM for IC50 and -50% for Amax)
NCI-H1975, TP53 MUT
  Amax: -20.93%
  sensitivity call: insensitive (Sensitivity call for each compound was applied according to a cut-off of 4 µM for IC50 and -50% for Amax)
NCI-H2052, TP53 WT
  Amax: -68.74%
  sensitivity call: sensitive (Sensitivity call for each compound was applied according to a cut-off of 4 µM for IC50 and -50% for Amax)
NCI-H2087, TP53 MUT
  Amax: -22.14%
  sensitivity call: insensitive (Sensitivity call for each compound was applied according to a cut-off of 4 µM for IC50 and -50% for Amax)
NCI-H2172, TP53 WT
  Amax: -28.81%
  sensitivity call: insensitive (Sensitivity call for each compound was applied according to a cut-off of 4 µM for IC50 and -50% for Amax)
NCI-H2196, TP53 MUT
  Amax: -2.21%
  sensitivity call: insensitive (Sensitivity call for each compound was applied according to a cut-off of 4 µM for IC50 and -50% for Amax)
NCI-H2347, TP53 WT
  Amax: 1.66%
  sensitivity call: insensitive (Sensitivity call for each compound was applied according to a cut-off of 4 µM for IC50 and -50% for Amax)
NIH:OVCAR-3, TP53 MUT
  Amax: -3.87%
  sensitivity call: insensitive (Sensitivity call for each compound was applied according to a cut-off of 4 µM for IC50 and -50% for Amax)
OC 316, TP53 MUT
  Amax: -2.87%
  sensitivity call: insensitive (Sensitivity call for each compound was applied according to a cut-off of 4 µM for IC50 and -50% for Amax)
OCI-AML2, TP53 WT
  Amax: -84.70%
